Test results from patent publication US20250032643A1, “SYNTHETIC RECEPTORS” (UCL BUSINESS LTD, priority 2021, published 2025).

Test system: Kir3.1 and Kir3.2 G-protein coupled inward rectifying potassium channels
Assay: Electrophysiology GIRK assay, basal activity without agonist application
Type: cell-based
Details: FIG. 21C; in comparison to GFP-only transfection, p=0.008
Excerpt: FIG. 21. Electrophysiology-based screen of hM4D (Gi) activation.

B1: Y113C+A203G+S85V+Y416F+V120I: modified human M4 muscarinic receptor (GRANPA) with these substitutions (protein)
chain: MANFTPVNGSSGNQSVRLVTSSSHNRYETVEMVFIATVTGSLSLVTVVGNILVMLSIKVNRQLQTVNNYFLFSLACADLIIGAFVMNLYTVYIIKGYWPLGAVVCDLWLALDCVVSNASIMNLLIISFDRYFCVTKPLTYPARRTTKMAGLMIAAAWVLSFVLWAPAILFWQFVVGKRTVPDNQCFIQFLSNPAVTFGTAIAGFYLPVVIMTVLYIHISLASRSRVHKHRPEGPKEKKAKTLAFLKSPLMKQSVKKPPPGEAAREELRNGKLEEAPPPALPPPPRPVADKDTSNESSSGSATQNTKERPATELSTTEATTPAMPAPPLQPRALNPASRWSKIQIVTKQTGNECVTAIEIVPATPAGMRPAANVARKFASIARNQVRKKRQMAARERKVTRTIFAILLAFILTWTPFNVMVLVNTFCQSCIPDTVWSIGYWLCYVNSTINPACYALCNATFKKTFRHLLLCQYRNIGTAR
basal activity without agonist application: significant basal activity
